Patent publication US20230250147A1 (Sanofi, published 2023)

B1: GLP-1RA/FGF21 Fc fusion protein SEQ ID NO: 122 (Fc fusion)
chain: HGEGTFTSDKSQLLEKRLAHLFIEWLIAGGHSSIKPPPKGGGGGGGSGGGGSGGGGSA[… human IgG4 Fc with changes …]GGGSGSAHPIPDSSPLLQFGGQVRQRYLYTDDACQTEAHLEIREDGTVGGAADQSPESLLQLKALKPGVIQILGVKTSRFLCQRPDGALYGSLHFDPEACSFRELLLEDGYNVYQSEAHGLPLHLPGCKSPHRDPAPRGPARFLPLPGLPPAPPEPPGILAPQPPDVGSSDPLSMVGSQGRSPSYAS
B2: GLP-1RA/FGF21 Fc fusion protein SEQ ID NO: 123 (Fc fusion)
chain: HGEGTFTSDKSKLLEKRLAHLFIEWLIKGGHSSIKPPPKGGGGGGGSGGGGSGGGGSA[… human IgG4 Fc with changes …]GGGSGSAHPIPDSSPLLQFGGQVRQRYLYTDDACQTEAHLEIREDGTVGGAADQSPESLLQLKALKPGVIQILGVKTSRFLCQRPDGALYGSLHFDPEACSFRELLLEDGYNVYQSEAHGLPLHLPGCKSPHRDPAPRGPARFLPLPGLPPAPPEPPGILAPQPPDVGSSDPLSMVGSQGRSPSYAS
B3: GLP-1RA/FGF21 Fc fusion protein SEQ ID NO: 124 (Fc fusion)
chain: HGEGTFTSDKSKLLEKRLAHLFIEWLIAGGHSKGKPPPKGGGGGGGSGGGGSGGGGSA[… human IgG4 Fc with changes …]GGGSGSAHPIPDSSPLLQFGGQVRQRYLYTDDACQTEAHLEIREDGTVGGAADQSPESLLQLKALKPGVIQILGVKTSRFLCQRPDGALYGSLHFDPEACSFRELLLEDGYNVYQSEAHGLPLHLPGCKSPHRDPAPRGPARFLPLPGLPPAPPEPPGILAPQPPDVGSSDPLSMVGSQGRSPSYAS
B4: GLP-1RA/FGF21 Fc fusion protein SEQ ID NO: 126 (Fc fusion)
chain: HGEGTFTSDKSKLLEKRAAHLFIEWLIAGGHSSIKPPPKGGGGGGGSGGGGSGGGGSA[… human IgG4 Fc with changes …]GGGSGSAHPIPDSSPLLQFGGQVRQRYLYTDDACQTEAHLEIREDGTVGGAADQSPESLLQLKALKPGVIQILGVKTSRFLCQRPDGALYGSLHFDPEACSFRELLLEDGYNVYQSEAHGLPLHLPGCKSPHRDPAPRGPARFLPLPGLPPAPPEPPGILAPQPPDVGSSDPLSMVGSQGRSPSYAS
B5: GLP-1RA/FGF21 Fc fusion protein SEQ ID NO: 127 (Fc fusion)
chain: HGEGTFTSDKSQLLEKRLAHLFIEWLIKGGHSSGRPPPKGGGGGGGSGGGGSGGGGSA[… human IgG4 Fc with changes …]GGGSGSAHPIPDSSPLLQFGGQVRQRYLYTDDACQTEAHLEIREDGTVGGAADQSPESLLQLKALKPGVIQILGVKTSRFLCQRPDGALYGSLHFDPEACSFRELLLEDGYNVYQSEAHGLPLHLPGCKSPHRDPAPRGPARFLPLPGLPPAPPEPPGILAPQPPDVGSSDPLSMVGSQGRSPSYAS
B6: GLP-1RA/FGF21 Fc fusion protein SEQ ID NO: 128 (Fc fusion)
chain: HGEGTFTSDKSQLLEKRLAHLFIEWLIKGGHSKGKYPPKGGGGGGGSGGGGSGGGGSA[… human IgG4 Fc with changes …]GGGSGSAHPIPDSSPLLQFGGQVRQRYLYTDDACQTEAHLEIREDGTVGGAADQSPESLLQLKALKPGVIQILGVKTSRFLCQRPDGALYGSLHFDPEACSFRELLLEDGYNVYQSEAHGLPLHLPGCKSPHRDPAPRGPARFLPLPGLPPAPPEPPGILAPQPPDVGSSDPLSMVGSQGRSPSYAS
B7: GLP-1RA/FGF21 Fc fusion protein SEQ ID NO: 130 (Fc fusion)
chain: HGEGTFTSDKSQLLEKELAHLFIEWLLAGGHSKGKPPPKGGGGGGGSGGGGSGGGGSA[… human IgG4 Fc with changes …]GGGSGSAHPIPDSSPLLQFGGQVRQRYLYTDDACQTEAHLEIREDGTVGGAADQSPESLLQLKALKPGVIQILGVKTSRFLCQRPDGALYGSLHFDPEACSFRELLLEDGYNVYQSEAHGLPLHLPGCKSPHRDPAPRGPARFLPLPGLPPAPPEPPGILAPQPPDVGSSDPLSMVGSQGRSPSYAS
B8: GLP-1RA/FGF21 Fc fusion protein SEQ ID NO: 132 (Fc fusion)
chain: HGEGTFTSDKSQLLEKRLAHLFIEWLLAGGHSSGKLSPKGGGGGGGSGGGGSGGGGSA[… human IgG4 Fc with changes …]GGGSGSAHPIPDSSPLLQFGGQVRQRYLYTDDACQTEAHLEIREDGTVGGAADQSPESLLQLKALKPGVIQILGVKTSRFLCQRPDGALYGSLHFDPEACSFRELLLEDGYNVYQSEAHGLPLHLPGCKSPHRDPAPRGPARFLPLPGLPPAPPEPPGILAPQPPDVGSSDPLSMVGSQGRSPSYAS
B9: GLP-1RA/FGF21 Fc fusion protein SEQ ID NO: 133 (Fc fusion)
chain: HGEGTFTSDKSQLLEKRLAHLFIEWLIKGGHSKQKPPPKGGGGGGGSGGGGSGGGGSA[… human IgG4 Fc with changes …]GGGSGSAHPIPDSSPLLQFGGQVRQRYLYTDDACQTEAHLEIREDGTVGGAADQSPESLLQLKALKPGVIQILGVKTSRFLCQRPDGALYGSLHFDPEACSFRELLLEDGYNVYQSEAHGLPLHLPGCKSPHRDPAPRGPARFLPLPGLPPAPPEPPGILAPQPPDVGSSDPLSMVGSQGRSPSYAS
B10: GLP-1RA/FGF21 Fc fusion protein SEQ ID NO: 134 (Fc fusion)
chain: HGEGTFTSDKSKLLEKRLAHLFIEWLIKGGHKSGKPPPKGGGGGGGSGGGGSGGGGSA[… human IgG4 Fc with changes …]GGGSGSAHPIPDSSPLLQFGGQVRQRYLYTDDACQTEAHLEIREDGTVGGAADQSPESLLQLKALKPGVIQILGVKTSRFLCQRPDGALYGSLHFDPEACSFRELLLEDGYNVYQSEAHGLPLHLPGCKSPHRDPAPRGPARFLPLPGLPPAPPEPPGILAPQPPDVGSSDPLSMVGSQGRSPSYAS
B11: GLP-1RA/FGF21 Fc fusion protein SEQ ID NO: 135 (Fc fusion)
chain: HGEGTFTSDKSQLLEERLVHLFIEWLIAGGHSSGKLPPKGGGGGGGSGGGGSGGGGSA[… human IgG4 Fc with changes …]GGGSGSAHPIPDSSPLLQFGGQVRQRYLYTDDACQTEAHLEIREDGTVGGAADQSPESLLQLKALKPGVIQILGVKTSRFLCQRPDGALYGSLHFDPEACSFRELLLEDGYNVYQSEAHGLPLHLPGCKSPHRDPAPRGPARFLPLPGLPPAPPEPPGILAPQPPDVGSSDPLSMVGSQGRSPSYAS
B12: GLP-1RA/FGF21 Fc fusion protein SEQ ID NO: 136 (Fc fusion)
chain: HGEGTFTSDKSKLLEKRLAHLFIEWLLAGGHSKGKPPPKGGGGGGGSGGGGSGGGGSA[… human IgG4 Fc with changes …]GGGSGSAHPIPDSSPLLQFGGQVRQRYLYTDDACQTEAHLEIREDGTVGGAADQSPESLLQLKALKPGVIQILGVKTSRFLCQRPDGALYGSLHFDPEACSFRELLLEDGYNVYQSEAHGLPLHLPGCKSPHRDPAPRGPARFLPLPGLPPAPPEPPGILAPQPPDVGSSDPLSMVGSQGRSPSYAS
B13: GLP-1RA/FGF21 Fc fusion protein SEQ ID NO: 139 (Fc fusion)
chain: HGEGTFTSDKSQLLEKRAAHLFIEWLIAGGHSSGKLSPKGGGGGGGSGGGGSGGGGSA[… human IgG4 Fc with changes …]GGGSGSAHPIPDSSPLLQFGGQVRQRYLYTDDACQTEAHLEIREDGTVGGAADQSPESLLQLKALKPGVIQILGVKTSRFLCQRPDGALYGSLHFDPEACSFRELLLEDGYNVYQSEAHGLPLHLPGCKSPHRDPAPRGPARFLPLPGLPPAPPEPPGILAPQPPDVGSSDPLSMVGSQGRSPSYAS
B14: GLP-1RA/FGF21 Fc fusion protein SEQ ID NO: 142 (Fc fusion)
chain: HGEGTFTSDKSQLLEKRLAHLFIEWLIAGGHKSGKYSPKGGGGGGGSGGGGSGGGGSA[… human IgG4 Fc with changes …]GGGSGSAHPIPDSSPLLQFGGQVRQRYLYTDDACQTEAHLEIREDGTVGGAADQSPESLLQLKALKPGVIQILGVKTSRFLCQRPDGALYGSLHFDPEACSFRELLLEDGYNVYQSEAHGLPLHLPGCKSPHRDPAPRGPARFLPLPGLPPAPPEPPGILAPQPPDVGSSDPLSMVGSQGRSPSYAS
B15: GLP-1RA/FGF21 Fc fusion protein SEQ ID NO: 143 (Fc fusion)
chain: HGEGTFTSDKSQLLEKRLAHLFIEWLLKGGHSKGKPPPKGGGGGGGSGGGGSGGGGSA[… human IgG4 Fc with changes …]GGGSGSAHPIPDSSPLLQFGGQVRQRYLYTDDACQTEAHLEIREDGTVGGAADQSPESLLQLKALKPGVIQILGVKTSRFLCQRPDGALYGSLHFDPEACSFRELLLEDGYNVYQSEAHGLPLHLPGCKSPHRDPAPRGPARFLPLPGLPPAPPEPPGILAPQPPDVGSSDPLSMVGSQGRSPSYAS
B16: GLP-1RA/FGF21 Fc fusion protein SEQ ID NO: 144 (Fc fusion)
chain: HGEGTFTSDKSQLLEKRLAHLFIEWLIKGGPSSIKPPPKGGGGGGGSGGGGSGGGGSA[… human IgG4 Fc with changes …]GGGSGSAHPIPDSSPLLQFGGQVRQRYLYTDDACQTEAHLEIREDGTVGGAADQSPESLLQLKALKPGVIQILGVKTSRFLCQRPDGALYGSLHFDPEACSFRELLLEDGYNVYQSEAHGLPLHLPGCKSPHRDPAPRGPARFLPLPGLPPAPPEPPGILAPQPPDVGSSDPLSMVGSQGRSPSYAS
B17: GLP-1RA/FGF21 Fc fusion protein SEQ ID NO: 145 (Fc fusion)
chain: HGEGTFTSDKSQLLEKRLAHLFIEWLIKGGHSSIRPPPKGGGGGGGSGGGGSGGGGSA[… human IgG4 Fc with changes …]GGGSGSAHPIPDSSPLLQFGGQVRQRYLYTDDACQTEAHLEIREDGTVGGAADQSPESLLQLKALKPGVIQILGVKTSRFLCQRPDGALYGSLHFDPEACSFRELLLEDGYNVYQSEAHGLPLHLPGCKSPHRDPAPRGPARFLPLPGLPPAPPEPPGILAPQPPDVGSSDPLSMVGSQGRSPSYAS
B18: GLP-1RA/FGF21 Fc fusion protein SEQ ID NO: 146 (Fc fusion)
chain: HGEGTFTSDKSQLLEKRLAHLFIEWLLAGGHKKGKPPPKGGGGGGGSGGGGSGGGGSA[… human IgG4 Fc with changes …]GGGSGSAHPIPDSSPLLQFGGQVRQRYLYTDDACQTEAHLEIREDGTVGGAADQSPESLLQLKALKPGVIQILGVKTSRFLCQRPDGALYGSLHFDPEACSFRELLLEDGYNVYQSEAHGLPLHLPGCKSPHRDPAPRGPARFLPLPGLPPAPPEPPGILAPQPPDVGSSDPLSMVGSQGRSPSYAS
B19: GLP-1RA/FGF21 Fc fusion protein SEQ ID NO: 147 (Fc fusion)
chain: HGEGTFTSDKSQLLEKRLAHLFIEWLLKGGHSSGRPPPKGGGGGGGSGGGGSGGGGSA[… human IgG4 Fc with changes …]GGGSGSAHPIPDSSPLLQFGGQVRQRYLYTDDACQTEAHLEIREDGTVGGAADQSPESLLQLKALKPGVIQILGVKTSRFLCQRPDGALYGSLHFDPEACSFRELLLEDGYNVYQSEAHGLPLHLPGCKSPHRDPAPRGPARFLPLPGLPPAPPEPPGILAPQPPDVGSSDPLSMVGSQGRSPSYAS

What follows are binders tested against human glucagon-like peptide-1 (GLP-1) receptor (human, UniProt P43220 24-463) (assay: cell-based or functional assay).

B1 and B2 are within 1.5-fold of each other in “HTRF cAMP EC50” value: 0.0145 nM for the first, 0.0127 nM for the second.

B3 and B4 are within 1.5-fold of each other in “HTRF cAMP EC50” value: 0.0106 nM for the first, 0.00851 nM for the second.

B5 and B6 are within 1.5-fold of each other in “HTRF cAMP EC50” value: 0.0103 nM for the first, 0.00983 nM for the second.

B7 and B8 are within 1.5-fold of each other in “HTRF cAMP EC50” value: 0.00738 nM for the first, 0.00848 nM for the second.

B9 and B10 are within 1.5-fold of each other in “HTRF cAMP EC50” value: 0.0134 nM for the first, 0.0173 nM for the second.

B11 and B12 are within 1.5-fold of each other in “HTRF cAMP EC50” value: 0.0115 nM for the first, 0.0118 nM for the second.

First: B13
Second: B14
The “HTRF cAMP EC50” value of the first is 1.8-fold lower: 0.00735 nM for the first, 0.0129 nM for the second.

B15 and B16 are within 1.5-fold of each other in “HTRF cAMP EC50” value: 0.0142 nM for the first, 0.0162 nM for the second.

First: B17
Second: B18
The “HTRF cAMP EC50” value of the first is 1.6-fold lower: 0.00763 nM for the first, 0.0123 nM for the second.

In the case of B19, the “HTRF cAMP EC50” value is reported as 0.0101 nM.
